Among the data in a collection of fitness landscapes (doi:10.1126/science.1257360) are enrichment ratio values, retold here.

To fix the notation:
B1: PhoQ; a variant is named by its letters at X, in order, P23837 (parent)
chain: MKKLLRLFFPLSLRVRFLLATAAVVLVLSLAYGMVALIGYSVSFDKTTFRLLRGESNLFYTLAKWENNKLHVELPENIDKQSPTMTLIYDENGQLLWAQRDVPWLMKMIQPDWLKSNGFHEIEADVNDTSLLLSGDHSIQQQLQEVREDDDDAEMTHSVAVNVYPATSRMPKLTIVVVDTIPVELKSSYMVWSWFIYVLSANLLLVIPLLWVAAWWSLRPIEALAKEVRELEEHNRELLNPATTRELTSLVRNLNRLLKSERERYDKYRTTLTDLTHSLKTPLXXLQXXLRSLRSEKMSVSDAEPVMLEQISRISQQIGYYLHRASMRGGTLLSRELHPVAPLLDNLTSALNKVYQRKGVNISLDISPEISFVGEQNDFVEVMGNVLDNACKYCLEFVEISARQTDEHLYIVVEDDGPGIPLSKREVIFDRGQRVDTLRPGQGVGLAVAREITEQYEGKIVAGESMLGGARMEVIFGRQHSAPKDE

This is one part of the list.

The experiment covers variants of B1. Nature of the experiment: enrichment ratio after two sorts for PhoP signalling (ratio (wild type AVST 3.29)); higher = more functional. Particulars: with PhoP (E. coli).
For YWYW, the enrichment ratio is ≤ 0.25.

Consider LSLF, for which the enrichment ratio is ≤ 0.25.

Take AIIE: the enrichment ratio was ≤ 0.25.

Take YLWH: the enrichment ratio was ≤ 0.25.

Consider QPTF, for which the enrichment ratio is ≤ 0.25.

Consider DDSK, for which the enrichment ratio is ≤ 0.25.

Regarding VHES, the enrichment ratio is ≤ 0.25.

Consider HYHN, for which the enrichment ratio is ≤ 0.25.

On to GCMI, for which the enrichment ratio is ≤ 0.25.

As for HDAG, the enrichment ratio is ≤ 0.25.

In the case of NQDE, the enrichment ratio is ≤ 0.25.

As for DAWQ, the enrichment ratio is ≤ 0.25.

Turning to CLSR, the enrichment ratio was ≤ 0.25.

Regarding IHMW, the enrichment ratio was ≤ 0.25.

For DGRY, the enrichment ratio is ≤ 0.25.

In the case of YVSA, the enrichment ratio turned out to be 0.277.

As to SAWY, the enrichment ratio was ≤ 0.25.

With FFLA, the enrichment ratio was ≤ 0.25.

For SHAY, the enrichment ratio worked out at 2.01.

For the variant LFQN, the enrichment ratio was ≤ 0.25.

QTNW: the enrichment ratio was ≤ 0.25.

On to AEGH, for which the enrichment ratio stood at 12.9.

For the variant LQND, the enrichment ratio is ≤ 0.25.

Take LDYP: the enrichment ratio is ≤ 0.25.

Turning to WPHQ, the enrichment ratio was ≤ 0.25.

For the variant ATPM, the enrichment ratio came out at 0.758.

For the variant HEVY, the enrichment ratio is ≤ 0.25.

With SWGH, the enrichment ratio was ≤ 0.25.

In the case of MAIL, the enrichment ratio was 5.5.

Regarding FADR, the enrichment ratio was ≤ 0.25.

TWHP: the enrichment ratio is ≤ 0.25.

In the case of IPWC, the enrichment ratio was ≤ 0.25.

Take VCKM: the enrichment ratio was ≤ 0.25.

Take PRFK: the enrichment ratio was ≤ 0.25.

On to WPTQ, for which the enrichment ratio was ≤ 0.25.

For HWMV, the enrichment ratio is ≤ 0.25.

For the variant KHYF, the enrichment ratio is ≤ 0.25.

TTEE: the enrichment ratio is ≤ 0.25.

For the variant IEDD, the enrichment ratio was ≤ 0.25.

With LRNT, the enrichment ratio was ≤ 0.25.

With WVNL, the enrichment ratio is ≤ 0.25.

As for NMVN, the enrichment ratio is ≤ 0.25.

Regarding VSYC, the enrichment ratio is ≤ 0.25.

On to NRWW, for which the enrichment ratio was ≤ 0.25.

For RWCK, the enrichment ratio is ≤ 0.25.

Regarding VDFK, the enrichment ratio is ≤ 0.25.

As to PDMM, the enrichment ratio is ≤ 0.25.

Take HQAG: the enrichment ratio is ≤ 0.25.

Turning to PNTP, the enrichment ratio was ≤ 0.25.

As to DSMQ, the enrichment ratio was ≤ 0.25.

With EVLP, the enrichment ratio is ≤ 0.25.

In the case of PNFT, the enrichment ratio is ≤ 0.25.

Take IFRW: the enrichment ratio was ≤ 0.25.

In the case of ECPK, the enrichment ratio was ≤ 0.25.

Turning to DEIT, the enrichment ratio was ≤ 0.25.

On to ITID, for which the enrichment ratio is ≤ 0.25.

Regarding DPGF, the enrichment ratio is ≤ 0.25.

Turning to ANFF, the enrichment ratio is ≤ 0.25.

As for SDEW, the enrichment ratio was ≤ 0.25.

Take QCRN: the enrichment ratio was determined as 0.978.

Regarding PIVQ, the enrichment ratio is ≤ 0.25.

On to LAVF, for which the enrichment ratio was ≤ 0.25.

DMMP: the enrichment ratio was ≤ 0.25.

Consider FYFQ, for which the enrichment ratio is ≤ 0.25.

As for NNCA, the enrichment ratio is ≤ 0.25.

With EKQW, the enrichment ratio is ≤ 0.25.

For NYFP, the enrichment ratio is ≤ 0.25.

As to LKYY, the enrichment ratio is ≤ 0.25.

Regarding MYIQ, the enrichment ratio is ≤ 0.25.

As to WIGP, the enrichment ratio was ≤ 0.25.

As to EAAN, the enrichment ratio is ≤ 0.25.

For YGPQ, the enrichment ratio was ≤ 0.25.

For RYEK, the enrichment ratio is ≤ 0.25.

In the case of GRTY, the enrichment ratio was ≤ 0.25.

Regarding SQGP, the enrichment ratio was ≤ 0.25.

Consider YAFP, for which the enrichment ratio is ≤ 0.25.

As to FLEP, the enrichment ratio was ≤ 0.25.

Turning to MFVK, the enrichment ratio was ≤ 0.25.

Take QKQG: the enrichment ratio was ≤ 0.25.

In the case of ACYQ, the enrichment ratio was ≤ 0.25.

For SHCQ, the enrichment ratio came to 21.1.

VVIG: the enrichment ratio is ≤ 0.25.

PIHT: the enrichment ratio was ≤ 0.25.

For IMES, the enrichment ratio is ≤ 0.25.

For MNGF, the enrichment ratio was 3.05.

Take ILSS: the enrichment ratio is ≤ 0.25.

On to KAQQ, for which the enrichment ratio is ≤ 0.25.

Regarding MPEC, the enrichment ratio was ≤ 0.25.

As to WGDD, the enrichment ratio is ≤ 0.25.

Turning to GRKH, the enrichment ratio was ≤ 0.25.

On to WTPI, for which the enrichment ratio is ≤ 0.25.

For LGFS, the enrichment ratio was ≤ 0.25.

With KCNL, the enrichment ratio is ≤ 0.25.

Take IQVV: the enrichment ratio was ≤ 0.25.

As to DFEC, the enrichment ratio was ≤ 0.25.

Take EMAR: the enrichment ratio is ≤ 0.25.

As for YRPY, the enrichment ratio is ≤ 0.25.

As for CEIH, the enrichment ratio was ≤ 0.25.

With VAWR, the enrichment ratio was ≤ 0.25.

Turning to VGLV, the enrichment ratio is 12.3.

Take NDKS: the enrichment ratio was ≤ 0.25.

As to QNTV, the enrichment ratio was ≤ 0.25.

With PWFC, the enrichment ratio was ≤ 0.25.

On to HDPR, for which the enrichment ratio was ≤ 0.25.

Take YHQH: the enrichment ratio is ≤ 0.25.

Regarding SMDN, the enrichment ratio is ≤ 0.25.

With GSSN, the enrichment ratio was ≤ 0.25.

In the case of HRKR, the enrichment ratio is ≤ 0.25.

On to GIAQ, for which the enrichment ratio is ≤ 0.25.

In the case of HQNM, the enrichment ratio was ≤ 0.25.

For RMEY, the enrichment ratio is ≤ 0.25.

Take FEQP: the enrichment ratio is ≤ 0.25.

Turning to HFTC, the enrichment ratio was ≤ 0.25.

Regarding SRRK, the enrichment ratio was ≤ 0.25.

Turning to SAHF, the enrichment ratio was ≤ 0.25.

For the variant VETL, the enrichment ratio is ≤ 0.25.

Regarding SHGK, the enrichment ratio was ≤ 0.25.

As to DSGM, the enrichment ratio is ≤ 0.25.

Regarding MVTQ, the enrichment ratio was ≤ 0.25.

Consider SGAL, for which the enrichment ratio was 10.6.

DQKS: the enrichment ratio is ≤ 0.25.

As for PSKE, the enrichment ratio was ≤ 0.25.

For the variant NGRG, the enrichment ratio was ≤ 0.25.

Regarding DNSK, the enrichment ratio is ≤ 0.25.

For NMTY, the enrichment ratio is ≤ 0.25.

Consider QTTV, for which the enrichment ratio was ≤ 0.25.

For the variant EMNI, the enrichment ratio is ≤ 0.25.

Regarding GYDT, the enrichment ratio is ≤ 0.25.

VVSN: the enrichment ratio was ≤ 0.25.

Turning to ITFW, the enrichment ratio was ≤ 0.25.

In the case of DLSC, the enrichment ratio was ≤ 0.25.

Turning to WIPV, the enrichment ratio was ≤ 0.25.

For QHTA, the enrichment ratio was ≤ 0.25.

As for GMFS, the enrichment ratio is ≤ 0.25.

For KSFN, the enrichment ratio was ≤ 0.25.

Turning to ANWW, the enrichment ratio is ≤ 0.25.

VNEL: the enrichment ratio is ≤ 0.25.

Regarding APRH, the enrichment ratio is ≤ 0.25.

Take VRPI: the enrichment ratio is ≤ 0.25.

As to WNAY, the enrichment ratio is ≤ 0.25.

Consider EYEW, for which the enrichment ratio is ≤ 0.25.

For RQHC, the enrichment ratio is ≤ 0.25.

Turning to GIGQ, the enrichment ratio was ≤ 0.25.

Take RLLS: the enrichment ratio was ≤ 0.25.

On to NHPL, for which the enrichment ratio was ≤ 0.25.

For DDPT, the enrichment ratio is ≤ 0.25.

Take RGCL: the enrichment ratio is ≤ 0.25.

Take VHWV: the enrichment ratio was ≤ 0.25.

As for ERDC, the enrichment ratio is ≤ 0.25.

In the case of GFVN, the enrichment ratio is ≤ 0.25.

Consider ACIE, for which the enrichment ratio is ≤ 0.25.

For FHMH, the enrichment ratio was ≤ 0.25.

KYVQ: the enrichment ratio was ≤ 0.25.
